# Assay results as given in the supplement of paper PMC8728848.
# The list shows a part of the results.
# Columns and labels:
# Test in all cases: glycan array binding signal (z-score within array); higher = stronger binding
# Settings in all cases: glycan notation: IUPAC condensed, linker removed
# Fuc(a1-2)Gal = target: Fuc(a1-2)Gal
# Outline: (§1)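 Columns mapping to the same glycan were averaged after glycan names were converted to IUPAC-condensed notation. The data come from 3228 arrays in the Consortium for Functional Glycomics database, limited to those with an available protein sequence. Binding is reported as a within-array Z-score averaged across arrays of one protein sequence and across linkers.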
# Fuc(a1-2)Gal(b1-3)GalNAc = target: Fuc(a1-2)Gal(b1-3)GalNAc
# Outline: as §1
# [1] = target: Fuc(a1-2)Gal(b1-3)GalNAc(b1-3)Gal
# Outline: as §1
# [2] = target: Fuc(a1-2)Gal(b1-3)GalNAc(b1-3)Gal(a1-4)Gal(b1-4)Glc
# Outline: as §1
# [3] = target: Fuc(a1-2)Gal(b1-3)GalNAc(b1-4)[Neu5Ac(a2-3)]Gal(b1-4)Glc
# Outline: as §1
# Fuc(a1-2)Gal(b1-3)GlcNAc = target: Fuc(a1-2)Gal(b1-3)GlcNAc
# Outline: as §1
# [4] = target: Fuc(a1-2)Gal(b1-3)[Fuc(a1-4)]GlcNAc
# Outline: as §1
# Fuc(a1-2)Gal(b1-4)Glc = target: Fuc(a1-2)Gal(b1-4)Glc
# Outline: as §1
# Fuc(a1-2)Gal(b1-4)GlcNAc = target: Fuc(a1-2)Gal(b1-4)GlcNAc
# Outline: as §1
# [5] = target: Fuc(a1-2)Gal(b1-4)GlcNAc(b1-3)Gal(b1-4)GlcNAc
# Outline: as §1
# [6] = target: Fuc(a1-2)Gal(b1-4)GlcNAc(b1-3)Gal(b1-4)GlcNAc(b1-3)Gal(b1-4)GlcNAc
# Outline: as §1
# [7] = target: Fuc(a1-2)Gal(b1-4)[Fuc(a1-3)]GlcNAc
# Outline: as §1
# Fuc(a1-2)GlcNAc = target: Fuc(a1-2)GlcNAc
# Outline: as §1
# Fuc(a1-2)[Gal(a1-3)]Gal = target: Fuc(a1-2)[Gal(a1-3)]Gal
# Outline: as §1
# [8] = target: Fuc(a1-2)[Gal(a1-3)]Gal(b1-4)GlcNAc
# Outline: as §1
# [9] = target: Fuc(a1-2)[Gal(a1-4)]Gal(b1-4)GlcNAc
# Outline: as §1
# [10] = target: Fuc(a1-2)[GalNAc(a1-3)]Gal
# Outline: as §1
# [11] = target: Fuc(a1-2)[GalNAc(a1-3)]Gal(b1-4)GlcNAc
# Outline: as §1
# [12] = target: Fuc(a1-2)[GalNAc(a1-4)]Gal(b1-4)GlcNAc
# Outline: as §1
# [13] = target: Fuc(a1-2)[GalNAc(b1-3)]Gal
# Outline: as §1
# Fuc(a1-3)GlcNAc = target: Fuc(a1-3)GlcNAc
# Outline: as §1
# [14] = target: Fuc(a1-3)[Gal(b1-4)]GlcNAc
# Outline: as §1
# [15] = target: Fuc(a1-3)[Gal(b1-4)]GlcNAc(b1-3)Gal(b1-4)[Fuc(a1-3)]GlcNAc
# Outline: as §1
# [16] = target: Fuc(a1-3)[Gal(b1-4)]GlcNAc(b1-3)Gal(b1-4)[Fuc(a1-3)]GlcNAc(b1-3)Gal(b1-4)[Fuc(a1-3)]GlcNAc
# Outline: as §1
# [17] = target: Fuc(a1-3)[Gal3S(b1-4)]GlcNAc
# Outline: as §1
# Fuc(b1-3)GlcNAc = target: Fuc(b1-3)GlcNAc
# Outline: as §1
# Gal(a1-2)Gal = target: Gal(a1-2)Gal
# Outline: as §1
# Gal(a1-3)Gal = target: Gal(a1-3)Gal
# Outline: as §1
# Gal(a1-3)Gal(b1-4)Glc = target: Gal(a1-3)Gal(b1-4)Glc
# Outline: as §1
# Gal(a1-3)Gal(b1-4)GlcNAc = target: Gal(a1-3)Gal(b1-4)GlcNAc
# Outline: as §1
# [18] = target: Gal(a1-3)Gal(b1-4)[Fuc(a1-3)]GlcNAc
# Outline: as §1
# Gal(a1-3)GalNAc = target: Gal(a1-3)GalNAc
# Outline: as §1
# [19] = target: Gal(a1-3)[Gal(a1-4)]Gal(b1-4)GlcNAc
# Outline: as §1
# Gal(a1-4)Gal(b1-4)Glc = target: Gal(a1-4)Gal(b1-4)Glc
# Outline: as §1
# Gal(a1-4)Gal(b1-4)GlcNAc = target: Gal(a1-4)Gal(b1-4)GlcNAc
# Outline: as §1
# Gal(a1-4)GlcNAc = target: Gal(a1-4)GlcNAc
# Outline: as §1
binder,measurement,setting,value
"IRp60B (Homo sapiens), Q9UGN4-3 (protein) MWLPWALLLLWVPAGDHSELSQNPKQAATQSELHYANLELLMWPLQEKPAPPREVEVEYSTVASPREELHYASVVFDSNTNRIAAQRPREEEPDSDYSVIRKT",glycan array binding signal (z-score),Fuc(a1-2)Gal,-0.267
same,glycan array binding signal (z-score),Fuc(a1-2)Gal(b1-3)GalNAc,-0.478
same,glycan array binding signal (z-score),[1],-0.48
same,glycan array binding signal (z-score),[2],-0.48
same,glycan array binding signal (z-score),[3],-0.336
same,glycan array binding signal (z-score),Fuc(a1-2)Gal(b1-3)GlcNAc,-0.242
same,glycan array binding signal (z-score),[4],-0.449
same,glycan array binding signal (z-score),Fuc(a1-2)Gal(b1-4)Glc,-0.424
same,glycan array binding signal (z-score),Fuc(a1-2)Gal(b1-4)GlcNAc,-0.132
same,glycan array binding signal (z-score),[5],-0.369
same,glycan array binding signal (z-score),[6],-0.483
same,glycan array binding signal (z-score),[7],-0.471
same,glycan array binding signal (z-score),Fuc(a1-2)GlcNAc,-0.304
same,glycan array binding signal (z-score),Fuc(a1-2)[Gal(a1-3)]Gal,1.27
same,glycan array binding signal (z-score),[8],-0.437
same,glycan array binding signal (z-score),[9],-0.404
same,glycan array binding signal (z-score),[10],-0.266
same,glycan array binding signal (z-score),[11],0.138
same,glycan array binding signal (z-score),[12],-0.156
same,glycan array binding signal (z-score),[13],-0.471
same,glycan array binding signal (z-score),Fuc(a1-3)GlcNAc,-0.302
same,glycan array binding signal (z-score),[14],-0.372
same,glycan array binding signal (z-score),[15],-0.443
same,glycan array binding signal (z-score),[16],3.4
same,glycan array binding signal (z-score),[17],-0.445
same,glycan array binding signal (z-score),Fuc(b1-3)GlcNAc,-0.221
same,glycan array binding signal (z-score),Gal(a1-2)Gal,-0.436
same,glycan array binding signal (z-score),Gal(a1-3)Gal,-0.439
same,glycan array binding signal (z-score),Gal(a1-3)Gal(b1-4)Glc,-0.396
same,glycan array binding signal (z-score),Gal(a1-3)Gal(b1-4)GlcNAc,-0.405
same,glycan array binding signal (z-score),[18],-0.321
same,glycan array binding signal (z-score),Gal(a1-3)GalNAc,0.074
same,glycan array binding signal (z-score),[19],-0.425
same,glycan array binding signal (z-score),Gal(a1-4)Gal(b1-4)Glc,5.38
same,glycan array binding signal (z-score),Gal(a1-4)Gal(b1-4)GlcNAc,2.07
same,glycan array binding signal (z-score),Gal(a1-4)GlcNAc,-0.202
